# From PMC4336329 (PLoS ONE, 2015)
# Among all 310,000 compounds or so, about 14,000 (4.5%) showed an effect of 50% or more. Effects have a minus sign here. The list shows a part of the results.
# Target: human ether-à-go-go-related gene (hERG) potassium channel (human, UniProt Q12809)
# Assay: primary screen, population patch clamp on CHO cells stably expressing hERG
# 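Also: peak tail current of the secondary pulse compared with the same well before compound.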
# human ether-à-go-go-related gene (hERG) potassium channel, sequence (Q12809 whole entry, looked up): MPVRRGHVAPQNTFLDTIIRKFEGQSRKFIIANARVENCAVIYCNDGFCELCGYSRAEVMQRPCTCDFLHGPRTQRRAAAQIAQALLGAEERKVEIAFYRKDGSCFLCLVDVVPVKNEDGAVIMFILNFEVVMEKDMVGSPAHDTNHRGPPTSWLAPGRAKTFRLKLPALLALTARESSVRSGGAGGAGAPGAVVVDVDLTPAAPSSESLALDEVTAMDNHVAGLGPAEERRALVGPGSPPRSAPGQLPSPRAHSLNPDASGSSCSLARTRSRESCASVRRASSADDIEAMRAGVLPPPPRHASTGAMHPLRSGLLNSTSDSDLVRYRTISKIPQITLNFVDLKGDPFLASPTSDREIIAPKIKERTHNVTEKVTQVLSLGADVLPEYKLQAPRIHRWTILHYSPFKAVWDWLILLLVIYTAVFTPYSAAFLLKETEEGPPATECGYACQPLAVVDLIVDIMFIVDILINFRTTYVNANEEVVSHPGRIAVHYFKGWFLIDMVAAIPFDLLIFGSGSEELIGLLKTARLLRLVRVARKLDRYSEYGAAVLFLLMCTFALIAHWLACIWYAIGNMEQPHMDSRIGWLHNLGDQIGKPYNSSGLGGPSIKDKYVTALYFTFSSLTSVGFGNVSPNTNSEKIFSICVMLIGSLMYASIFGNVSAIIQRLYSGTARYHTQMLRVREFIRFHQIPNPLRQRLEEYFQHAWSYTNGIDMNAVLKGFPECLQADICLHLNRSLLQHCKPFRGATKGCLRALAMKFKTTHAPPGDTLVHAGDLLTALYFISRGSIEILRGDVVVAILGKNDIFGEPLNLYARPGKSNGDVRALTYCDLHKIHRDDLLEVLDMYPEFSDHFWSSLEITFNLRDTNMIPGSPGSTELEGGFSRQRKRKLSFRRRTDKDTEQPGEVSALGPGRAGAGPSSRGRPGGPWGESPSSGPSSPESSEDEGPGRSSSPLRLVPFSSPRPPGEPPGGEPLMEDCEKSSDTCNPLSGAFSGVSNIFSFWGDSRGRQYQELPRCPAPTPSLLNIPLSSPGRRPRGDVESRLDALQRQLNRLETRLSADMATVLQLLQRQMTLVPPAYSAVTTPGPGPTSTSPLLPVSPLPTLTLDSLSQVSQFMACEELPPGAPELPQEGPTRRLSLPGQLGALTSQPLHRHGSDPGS
row,Structure (SMILES),"hERG current change (%, negative = inhibition) at 10uM [%]"
1,Cc1cccc(-c2cc3nc4c(c(N5CCCC(O)C5)n3n2)CCC4)c1 (stereo not shown),-41.1
2,Cc1c(C)c2cc(Cl)c(O)c(CN3CCCCC3)c2oc1=O,12.1
3,O=C(CSc1nnc(-c2csc3c2CCCC3)o1)Nc1ccccc1,-0.706
4,Cc1cc(N2CCOCC2)nc(SCc2ccc(Cl)cc2Cl)n1,-11.3
5,COc1ccc2[nH]c(=O)c(-c3noc(-c4ccc(F)cc4)n3)cc2c1,1.57
6,CN(C)CCNc1nc(-c2ccccc2)c2c(c1C#N)CC(C)(C)OC2,-42.4
7,Cc1sc2nc(CN3CCOCC3)nc(Oc3ccc(NC(=O)c4ccco4)cc3)c2c1C,-38.9
8,O=C(O)C(=O)O.OC(COC(c1ccc(F)cc1)c1ccc(F)cc1)CN1CCCC1 (stereo not shown),-70.6
9,O=C(NNC(=O)c1ccc(Br)s1)c1cccc(Cl)c1,11.7
10,CNC(=O)/C(=C\c1ccco1)NC(=O)c1ccco1,10.3
11,CC(C)n1c(=O)c(C=Nc2ccc(S(N)(=O)=O)cc2)c(O)n(Cc2ccco2)c1=O,2.73
12,Cc1nn(-c2ccc(N3CCOCC3)nn2)c(C)c1CCC(=O)N1CCN(C)CC1,14
13,Cc1ccc(S(=O)(=O)NCC(=O)OCC(=O)NC(=O)c2cccn2C)cc1,9.14
14,O=C(NN=C1CCCCCC1)c1cc(-c2ccccc2)nc2ccccc12,-14.5
15,Cn1c(=O)c2c(ncn2CC(=O)N/N=C/c2ccco2)n(C)c1=O,-4.23
16,CC(C)(C)c1ccc(Cn2nnc3c(=O)[nH]c(C4CCCN(C(=O)c5ccco5)C4)nc32)cc1 (stereo not shown),-11
17,CCOC(=O)CSc1nnc(COc2ccc3ccccc3c2)o1,11.1
18,CCC(CC)C(=O)c1c[nH]c(C(=O)NC2CCCCCC2)c1,-27.3
19,O=C(Nc1cccc(-n2cnnn2)c1)c1cc(Cl)nc(Cl)c1,-4.24
20,CC(=O)c1ccc(N2CCN(C(=O)Nc3ccc(Cl)cc3)CC2)cc1,-8.35
21,O=C(Cn1nc(-c2ccc3c(c2)OCCO3)ccc1=O)Nc1ccc(-n2cnnn2)cc1,17
22,CCC(C)(C)NC(=O)C(Sc1ccccc1)c1ccccc1 (stereo not shown),9.2

row,Structure (SMILES),"hERG current change (%, negative = inhibition) at 10uM [%]"
1,COc1ccc(NC(=O)CSc2nnc(-c3ccncc3)o2)c([N+](=O)[O-])c1,6.12
2,O=C(NCc1ccco1)c1ccc2c(=O)n(CC3CCCO3)c(=S)[nH]c2c1 (stereo not shown),-1.68
3,COc1ccc(CCN(C)C(=O)CN2C(=O)NC3(CCCc4ccccc43)C2=O)cc1OC (stereo not shown),11.6
4,CCOc1ccccc1NC(=O)CN(c1nccs1)S(=O)(=O)c1ccc(N)cc1,15
5,CCOC(=O)c1c(S(=O)(=O)N2CCCC(C)C2)c(C)n(C)c1C (stereo not shown),2.59
6,CC1(C)Cc2c(c(N3CCOCC3)nc3sc(-c4ccc(C(=O)O)o4)c(N)c23)CO1,-15.2
7,CCOC(=O)NC(=O)CSc1ccc(C)cc1C,-1.12
8,c1ccc2c(c1)nc(CN1CCOCC1)n1c3ccccc3nc21,-41.5
9,Cc1nnc(SCCCN2C(=O)c3ccccc3C2=O)o1,-1.14
10,CCOCCCNC(=O)CCc1ccc(-n2cnc3cccnc32)cc1,5.37
11,Cc1ccc(C2CC(=O)NC(SCc3ccccc3)=C2C#N)o1 (stereo not shown),-8.11
12,COc1ccc(OC)c(N(CC(=O)Nc2cccnc2)S(=O)(=O)c2ccc(C)cc2)c1,-12.1
13,CC(NC(=O)Cn1nc(-c2ccccc2)ccc1=O)c1ccccc1 (stereo not shown),-13.4
14,O=C(N/N=C/c1ccc2c(c1)OCO2)c1ccccn1,5.36
15,COC(=O)CNC(=O)C1Nc2ccccc2C2C=CCC12 (stereo not shown),3.38
16,NS(=O)(=O)c1ccc(Nc2nc(-c3ccc(O)cc3)cs2)cc1,7.56
17,CCC(=O)n1nc(NCc2ccc(OC)c(OC)c2)nc1NCc1ccc(OC)c(OC)c1,2.76
18,O=C(Nc1ccc(Cl)c(-c2nc3ccccc3[nH]2)c1)c1ccc2c(c1)OCO2,-15
19,Cc1[nH]nc2ncc(C(=O)c3cc(F)ccc3O)cc12,-7.26
20,Nc1nonc1-n1nnc(C(=O)N/N=C/c2c(Cl)cccc2Cl)c1CN1CCOCC1,29.7
21,COc1ccc(Cl)cc1NC(=O)C1Cc2cc(S(=O)(=O)N3CCCC3)ccc2N1C(C)=O (stereo not shown),-10.3
22,CCOC(=O)/C=C1\SCC(=O)N1CC(=O)Nc1ccccc1OC(F)F,18.8

row,Structure (SMILES),"hERG current change (%, negative = inhibition) at 10uM [%]"
1,NC(=O)c1cccc2ccccc12,1.94
2,CC(C)(C)c1cc(Cl)ccc1OCCn1ccnc1.O=C(O)C(=O)O,-5.05
3,COc1ccccc1CCNC(=O)CCn1c(=O)oc2ccccc21,8.54
4,COc1cc(Cl)c(C)cc1NC(=O)CSc1cc(Cl)ccc1Cl,7.31
5,CC(=O)c1c(C)nc(Nc2nc3ccccc3s2)nc1C,4.5
6,Cc1cc(O)cc(O)c1C(=O)Cc1cnn(-c2ccccc2)c1,-0.738
7,Cc1cccc(N2CCN(S(=O)(=O)c3ccc4c(c3)NC(=O)CS4)CC2)c1C,14.5
8,COc1cc(-c2ccc3oc(-c4ccsc4)cc3c2)cc(OC)c1OC,15.3
9,Cc1[nH][nH]c(=O)c1N=Nc1ccc(F)cc1,10.5
10,O=S(=O)(c1ccc2ccccc2c1)N1CCCCCC1,-1.76
11,CCCCCCNC(=O)N[C@@H](Cc1ccc(O)cc1)C(=O)NCCC[C@H]1CN2C(=NC[C@H]2C)N1CC1CCC1,2.98
12,CCOc1ccc(CCNC(=O)COC(=O)/C=C/c2ccccc2)cc1OCC,2.02
13,Cc1cc(C)n2c(SCC(=O)NC3CCCCC3)nnc2n1,31.1
14,CCOc1ccc(CCNS(=O)(=O)c2ccc3c(c2)oc(=O)n3C)cc1OCC,1.53
15,COc1ccc(N2CCN(Cc3nc4c(c(=O)[nH]c(=O)n4C)n3Cc3cccc(Cl)c3)CC2)cc1,-16.5
16,Cc1cc(C(C)(C)C)n2nc(C)c(-c3ccccc3)c2n1,13.9
17,O=C(CNC(=O)c1ccc(Br)o1)Nc1cccc(-c2cnc3ccccc3n2)c1,-0.706
18,Cc1c(C(=O)N/N=C/c2ccoc2)cccc1[N+](=O)[O-],9.67
19,CC(=O)c1cccc(-n2c(CCC(=O)O)ccc2-c2ccc(C)cc2)c1,10.1
20,CN(C)C=Nc1nonc1-c1ccccc1,-1.32
21,COc1cc(CCC(=O)OCC(=O)Nc2ccc(C)cc2Br)cc(OC)c1OC,10.2
22,O=C(O)CC1OCC=C2CN3CCC45C6=CC(=O)C(=O)C([N+](=O)[O-])=C6NC4C1C2CC35 (stereo not shown),10.1

row,Structure (SMILES),"hERG current change (%, negative = inhibition) at 10uM [%]"
1,Fc1ccc(N2CCN(C3=Nc4cccc5cccc3c45)CC2)cc1,-77
2,COc1ccc(-c2csc(Nc3ccccc3)[n+]2Cc2ccccc2)cc1.[Br-],27.6
3,O=[N+]([O-])c1cccc(S(=O)(=O)N2CCCCC2c2cccnc2)c1 (stereo not shown),-20
4,Cc1ccc(C(=O)O)cc1NC(=S)NCCc1ccccc1,0.261
5,CCCCCCCCOC1OC(CO)C(O)C(O)C1NC(C)=O (stereo not shown),4.74
6,CCOc1ccc(-n2nnnc2SCC(=O)c2ccccc2)cc1,-2.66
7,CCOC(=O)N1CCN(CCC(=O)c2ccc(Cl)cc2)CC1.Cl,-40.9
8,COc1ccccc1CN1C(=NC(=O)C2CCCCC2)SC2CS(=O)(=O)CC21 (stereo not shown),19.1
9,COc1ccc(CCNC(=O)CSc2nncs2)cc1,6.79
10,CCOc1ccc(CCNC(=O)CCC(=O)N2CCOc3ccccc32)cc1OCC,-7.82
11,COc1ccc(CCNC(=O)CSc2nc(-c3ccco3)cc(C(F)(F)F)n2)cc1OC,-15.8
12,NNC(=O)c1cn2ccccc2n1,-3.57
13,S=C(NCC1CCCO1)Nc1ccc(Cl)c(Cl)c1 (stereo not shown),-17.2
14,Cc1ccc(C2=NNC(=O)C(c3c[nH]c4ccccc34)C2)cc1 (stereo not shown),23.3
15,CSc1ccc(/C=N\NC(=O)CC(=O)NC(C)C)cc1,7.48
16,O=S(=O)(c1ccc(Br)cc1)c1nc(-c2ccccc2)oc1N1CCOCC1,-30.7
17,COc1cc(/C=N/NC(=O)CCc2ccccc2)ccc1O,-1.02
18,CC(=O)c1ccc(OCC(=O)OC(C)C(=O)NC2CCCCC2C)cc1 (stereo not shown),26.9
19,[N-]=[N+]=CC(=O)C(Cc1ccccc1)N1C(=O)c2ccccc2C1=O (stereo not shown),11.6
20,O=C(N/N=C/c1cn(CCOc2ccccc2)c2ccccc12)c1ccncc1,-12
21,O=C(Nc1ccccc1Oc1cccnc1)C1CCCN(Cc2ccc(F)cc2)C1 (stereo not shown),-36.2
22,CCCC(C)NS(=O)(=O)c1ccc(OC)c(C)c1 (stereo not shown),-7.85
